{
  "source": "paper PMC4336329",
  "about": "(PLoS ONE, 2015)",
  "note": "The whole screen tested about 310,000 compounds, of which about 14,000 (4.5%) showed an effect of 50% or more. Effects have a minus sign here. The list shows a part of the results.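 Note: peak tail current of the secondary pulse compared with the same well before compound.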",
  "data": [
    {"biological_target": "human ether-à-go-go-related gene (hERG) potassium channel (human, UniProt Q12809)", "sequence (Q12809 whole entry, looked up)": "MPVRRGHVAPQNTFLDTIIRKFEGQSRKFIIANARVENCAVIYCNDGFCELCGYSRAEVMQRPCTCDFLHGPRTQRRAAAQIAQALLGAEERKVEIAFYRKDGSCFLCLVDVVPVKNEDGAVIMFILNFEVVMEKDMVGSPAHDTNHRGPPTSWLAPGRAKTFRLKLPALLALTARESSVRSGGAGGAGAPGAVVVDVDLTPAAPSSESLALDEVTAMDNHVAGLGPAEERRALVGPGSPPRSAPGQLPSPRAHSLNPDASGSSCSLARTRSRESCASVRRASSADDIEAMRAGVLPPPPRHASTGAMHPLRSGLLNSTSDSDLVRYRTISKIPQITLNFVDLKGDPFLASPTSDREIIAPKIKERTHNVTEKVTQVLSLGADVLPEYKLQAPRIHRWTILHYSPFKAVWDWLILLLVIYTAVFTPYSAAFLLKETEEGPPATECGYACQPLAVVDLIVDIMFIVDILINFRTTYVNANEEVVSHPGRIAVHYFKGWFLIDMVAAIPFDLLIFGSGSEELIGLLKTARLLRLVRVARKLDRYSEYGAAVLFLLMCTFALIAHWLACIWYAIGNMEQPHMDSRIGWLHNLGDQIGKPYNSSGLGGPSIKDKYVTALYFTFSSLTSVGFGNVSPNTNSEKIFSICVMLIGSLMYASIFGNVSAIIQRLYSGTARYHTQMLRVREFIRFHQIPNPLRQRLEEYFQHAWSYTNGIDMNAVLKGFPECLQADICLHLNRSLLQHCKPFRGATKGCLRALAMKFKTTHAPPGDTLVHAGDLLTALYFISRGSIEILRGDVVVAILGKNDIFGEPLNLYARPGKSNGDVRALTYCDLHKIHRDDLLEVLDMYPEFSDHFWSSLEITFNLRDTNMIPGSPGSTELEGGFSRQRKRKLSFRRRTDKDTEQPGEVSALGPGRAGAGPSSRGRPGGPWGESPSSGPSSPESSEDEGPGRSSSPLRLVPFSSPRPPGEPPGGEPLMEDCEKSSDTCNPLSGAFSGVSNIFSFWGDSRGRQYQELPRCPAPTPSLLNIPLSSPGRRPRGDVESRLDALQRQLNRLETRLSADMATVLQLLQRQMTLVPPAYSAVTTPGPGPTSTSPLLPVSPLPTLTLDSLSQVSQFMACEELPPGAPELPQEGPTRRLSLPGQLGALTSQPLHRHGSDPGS", "assay": "primary screen, population patch clamp on CHO cells stably expressing hERG", "units": {"hERG current change (%, negative = inhibition) at 10uM": "%"}, "values": [
      {"smiles": "O=C(c1cccc(NS(=O)(=O)c2cccc(F)c2)c1)N1CCN(c2ccccc2)CC1", "hERG current change (%, negative = inhibition) at 10uM": -8.41},
      {"smiles": "CCCOc1ccc(CSc2ncn[nH]2)cc1", "hERG current change (%, negative = inhibition) at 10uM": -4.54},
      {"smiles": "CCOC(=O)C1CCCN(C(=O)/C=C/c2ccc(Cl)cc2)C1", "note": "(stereo not shown)", "hERG current change (%, negative = inhibition) at 10uM": -59.9},
      {"smiles": "Cc1ccc(N(CC(=O)N2CCCCCC2)S(C)(=O)=O)cc1Cl", "hERG current change (%, negative = inhibition) at 10uM": 9.84},
      {"smiles": "C1CCN(c2nc3nonc3nc2N2CCCCC2)CC1", "hERG current change (%, negative = inhibition) at 10uM": -4.04},
      {"smiles": "COc1ccccc1-n1nnnc1SCc1ccccc1", "hERG current change (%, negative = inhibition) at 10uM": -13.7},
      {"smiles": "COc1ccc(S(=O)(=O)NN(C)C(=O)c2nn(-c3ccccc3)ccc2=O)cc1", "hERG current change (%, negative = inhibition) at 10uM": -17},
      {"smiles": "COC(=O)C1=C(C(=O)OC)[C@@H]2N(C)c3ccccc3[C@@]23C[C@@H](C(=O)OC)N(C(C)=O)C3=N1", "hERG current change (%, negative = inhibition) at 10uM": 0.626},
      {"smiles": "COc1cc(C)c(S(=O)(=O)N2CCOCC2)cc1C", "hERG current change (%, negative = inhibition) at 10uM": 7.75},
      {"smiles": "CCCC1CCC(=NNC(=O)CNc2ccc(OC)cc2)CC1", "note": "(stereo not shown)", "hERG current change (%, negative = inhibition) at 10uM": 4.71},
      {"smiles": "O=C(c1cc2n(n1)C(C(F)(F)F)CC(c1ccc(Cl)cc1)N2)N1CCCC1", "note": "(stereo not shown)", "hERG current change (%, negative = inhibition) at 10uM": 0.915},
      {"smiles": "C=CCOCCN1C(=O)C2C3C=CC(C2C1=O)C1C2C(=O)N(CCOCC=C)C(=O)C2C31", "note": "(stereo not shown)", "hERG current change (%, negative = inhibition) at 10uM": -17.2},
      {"smiles": "CN(C)CCc1c[nH]c2ccc(Cn3cncn3)cc12.O=C(O)c1ccccc1", "hERG current change (%, negative = inhibition) at 10uM": -5.06},
      {"smiles": "Cc1cc(C)c(NC(=O)Nc2ccc3c(c2)OCO3)c(C)c1", "hERG current change (%, negative = inhibition) at 10uM": 18},
      {"smiles": "Cc1cccc(NC(=O)C2CC(=O)N(c3ccccc3)C2)c1C", "note": "(stereo not shown)", "hERG current change (%, negative = inhibition) at 10uM": 6.13},
      {"smiles": "COC(=O)C1=C(c2ccc(F)cc2F)C[C@@H]2CC[C@H]1N2C(=O)NCCOc1ccccc1", "hERG current change (%, negative = inhibition) at 10uM": -23.5},
      {"smiles": "O=C(COc1ccccc1)Nc1nc2ccccc2[nH]1", "hERG current change (%, negative = inhibition) at 10uM": 14.1},
      {"smiles": "COC(=O)c1nn(-c2ccccc2)c(Sc2ccccc2)c1/C=N/O", "hERG current change (%, negative = inhibition) at 10uM": 8.24},
      {"smiles": "COc1ccc(C(=O)NCCSc2ccccc2)cc1OC", "hERG current change (%, negative = inhibition) at 10uM": -11},
      {"smiles": "Cc1ccccc1OCCC(=O)OCC(=O)Nc1ccc2[nH]c(=O)[nH]c2c1", "hERG current change (%, negative = inhibition) at 10uM": 3.11},
      {"smiles": "COc1ccc(N=CC2=C(O)CC(C)(C)CC2=O)cc1OC", "hERG current change (%, negative = inhibition) at 10uM": 10.9},
      {"smiles": "NCCc1nc2ccccc2s1", "hERG current change (%, negative = inhibition) at 10uM": 30.8},
      {"smiles": "COc1cc(C)c(NC(=O)COc2ccc3c(c2)OCO3)cc1C", "hERG current change (%, negative = inhibition) at 10uM": 14.6},
      {"smiles": "Cc1cc(C)c(C#N)c(SCC(=O)NC2CC2)n1", "hERG current change (%, negative = inhibition) at 10uM": 9.6},
      {"smiles": "CC(C)(C)NC(=O)c1ccc2c(c1)C(=O)N(Cc1ccco1)C2=O", "hERG current change (%, negative = inhibition) at 10uM": 8.85},
      {"smiles": "CCOC(=O)c1[nH]c(C)c(CCC(=O)OC)c1C", "hERG current change (%, negative = inhibition) at 10uM": 7.41},
      {"smiles": "O=C(CSc1nc2ccccc2c(=O)[nH]1)Nc1cccc([N+](=O)[O-])c1", "hERG current change (%, negative = inhibition) at 10uM": 15.3},
      {"smiles": "CN(Cc1cc(-c2ccccc2)on1)C(=O)c1cc(COc2c(F)cccc2F)on1", "hERG current change (%, negative = inhibition) at 10uM": 3.7},
      {"smiles": "CC(CC(=O)N(C)c1c(N)n(Cc2ccccc2)c(=O)[nH]c1=O)c1ccccc1", "note": "(stereo not shown)", "hERG current change (%, negative = inhibition) at 10uM": -23.3},
      {"smiles": "Cc1cc(C)n(-c2nc(C)nc3sc4c(c23)CCC(C)C4)n1", "note": "(stereo not shown)", "hERG current change (%, negative = inhibition) at 10uM": -4.75},
      {"smiles": "O=C(OCC(=O)N1CCc2ccccc21)c1cccnc1Cl", "hERG current change (%, negative = inhibition) at 10uM": 7.79},
      {"smiles": "Cc1nnc(NC(=O)c2cccc(S(=O)(=O)N3CCOCC3)c2)s1", "hERG current change (%, negative = inhibition) at 10uM": 7.89},
      {"smiles": "O=C(O)c1cc(-c2ccc(/C=N/N3C(=O)C4C5C=CC(C6CC56)C4C3=O)o2)ccc1Cl", "note": "(stereo not shown)", "hERG current change (%, negative = inhibition) at 10uM": 16.4},
      {"smiles": "COc1ccc(-c2cc3ccc(OCC(=O)NCC4CCC(C(=O)O)CC4)cc3oc2=O)cc1", "note": "(stereo not shown)", "hERG current change (%, negative = inhibition) at 10uM": 2.02},
      {"smiles": "CCOC(=O)c1sc(NC(=O)COC(=O)Cn2cnc3ccccc32)c(C(=O)OCC)c1C", "hERG current change (%, negative = inhibition) at 10uM": 10.1},
      {"smiles": "C=CCn1c(CSc2nc3ccccc3s2)nnc1SCC(=O)NCc1ccccc1", "hERG current change (%, negative = inhibition) at 10uM": -43.9},
      {"smiles": "COc1ccc(C(C)=O)cc1COc1ccc(Cl)cc1Cl", "hERG current change (%, negative = inhibition) at 10uM": 3.09},
      {"smiles": "C=CCc1cc(Cl)ccc1OCCOCCNC(C)(C)C.O=C(O)C(=O)O", "hERG current change (%, negative = inhibition) at 10uM": -49.5},
      {"smiles": "COC(=O)c1c(C)oc(C)c1S(=O)(=O)NC(C)(C)C", "hERG current change (%, negative = inhibition) at 10uM": 0.959},
      {"smiles": "C=CCn1cc(C(=O)N2CCN(C)CC2)c(=O)c2cc(S(=O)(=O)N3CCCC3)ccc21", "hERG current change (%, negative = inhibition) at 10uM": 8.69},
      {"smiles": "CSc1ccccc1OCc1cc(C(=O)N2CCc3c(Cl)cccc3C2)no1", "hERG current change (%, negative = inhibition) at 10uM": 5.8},
      {"smiles": "Cc1c(C)c2ccc(OCC(=O)N3CCC(C(=O)O)(c4ccccc4)CC3)c(C)c2oc1=O", "hERG current change (%, negative = inhibition) at 10uM": 14.9},
      {"smiles": "Nc1ccc2c(c1)ncn2CCCn1cnc2cc(N)ccc21", "hERG current change (%, negative = inhibition) at 10uM": -14.7},
      {"smiles": "c1cnc2nc(CSc3ncn[nH]3)cn2c1", "hERG current change (%, negative = inhibition) at 10uM": 7.08},
      {"smiles": "Brc1cccc(CN2CCN(c3ncccn3)CC2)c1", "hERG current change (%, negative = inhibition) at 10uM": 11.7},
      {"smiles": "O=C(N1CCN(c2ccccc2)CC1)C(F)(F)C(F)F", "hERG current change (%, negative = inhibition) at 10uM": -12.6},
      {"smiles": "COc1ccccc1-n1cnc2cc(NCc3cccs3)ccc21", "hERG current change (%, negative = inhibition) at 10uM": -29.1},
      {"smiles": "CCOc1ccc(NC(=O)CSc2nnc(C3CC3)n2C)cc1", "hERG current change (%, negative = inhibition) at 10uM": 25.9},
      {"smiles": "Cc1cccc2sc(NC(=O)Cn3cccc3)nc12", "hERG current change (%, negative = inhibition) at 10uM": -15.5},
      {"smiles": "CCCn1c(=O)c2ccccc2n2c(SCc3c(C(=O)OCC)oc4ccccc34)nnc12", "hERG current change (%, negative = inhibition) at 10uM": -43.5},
      {"smiles": "Cc1ccc(S(=O)(=O)NNC(=O)c2cc(C)cs2)cc1", "hERG current change (%, negative = inhibition) at 10uM": 13},
      {"smiles": "Clc1cc(Sc2ccc(Br)cc2)nnc1-c1ccccc1", "hERG current change (%, negative = inhibition) at 10uM": -10.8},
      {"smiles": "CCOC(=O)C1CCCCN1C(=O)CCn1nnnc1CN1CCOCC1", "note": "(stereo not shown)", "hERG current change (%, negative = inhibition) at 10uM": 18.9},
      {"smiles": "COc1ccc(NC(=O)c2ccco2)cc1NC(=O)c1cccc(OC(C)C)c1", "hERG current change (%, negative = inhibition) at 10uM": -96.7},
      {"smiles": "CCOCN(C(=O)CCl)c1c(C)cccc1CC", "hERG current change (%, negative = inhibition) at 10uM": -2.83},
      {"smiles": "O=S(=O)(c1cccc2cccnc12)N1CCN(c2ccccn2)CC1", "hERG current change (%, negative = inhibition) at 10uM": 2.46},
      {"smiles": "CC(C)C(c1nnnn1Cc1ccccc1)N1CCC(C(N)=O)CC1", "note": "(stereo not shown)", "hERG current change (%, negative = inhibition) at 10uM": -3.23},
      {"smiles": "CC/C(=N\\NC(=O)CSCc1ccccc1Br)c1ccc2c(c1)OCCO2", "hERG current change (%, negative = inhibition) at 10uM": 5.26}
    ]}
  ]
}
